The whole screen tested about 230,000 compounds, of which fewer than 10 were called active. This list was built around the results that the source calls inconclusive (neither active nor inactive); the mix of calls is not that of the screen. The call rests on the fitted dose curve; in most records, active means well fitted curve in the direction sought with a large enough effect; inconclusive means small, poorly fitted or top-dose-only effect, or effect the other way, or another doubt; inactive means no such curve, though single readings can be large or run the other way. No potency is given beside an inconclusive call; the fits are too rough.
target: Runt-related transcription factor 1 (Homo sapiens) + Core-binding factor subunit beta (Homo sapiens) (UniProt Q01196+Q13951); experiment: qHTS Assay for Compounds Blocking the Interaction Between CBF-beta and RUNX1 for the Treatment of Acute Myeloid Leukemia; details: AlphaScreen CBFb-His/RUNX1-biotin binding, biochemical; activity, negative = inhibition: at 59.8 µM (top of the series) unless noted; on activity, negative = inhibition: % of control where 0% means no effect
In short: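 Room-temperature protein-protein interaction test with 30 nM each of His-tagged CBF-beta and biotinylated RUNX1, 15 min with compound, then 90 min with nickel plus streptavidin beads. Signal read in AlphaScreen mode.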

Sequence of UniProt Q01196 (Q01196 whole entry, looked up): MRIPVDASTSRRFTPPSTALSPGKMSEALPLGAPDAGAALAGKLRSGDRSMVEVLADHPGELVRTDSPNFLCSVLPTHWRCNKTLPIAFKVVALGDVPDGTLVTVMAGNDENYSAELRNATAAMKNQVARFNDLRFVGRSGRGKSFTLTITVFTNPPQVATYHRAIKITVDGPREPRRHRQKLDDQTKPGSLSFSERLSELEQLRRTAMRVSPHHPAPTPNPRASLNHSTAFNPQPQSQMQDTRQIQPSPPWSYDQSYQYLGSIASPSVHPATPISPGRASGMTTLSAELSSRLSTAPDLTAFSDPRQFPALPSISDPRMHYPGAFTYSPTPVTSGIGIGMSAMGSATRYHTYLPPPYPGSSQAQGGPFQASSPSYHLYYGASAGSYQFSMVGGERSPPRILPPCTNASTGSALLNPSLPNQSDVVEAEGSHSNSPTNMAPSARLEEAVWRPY
Sequence of UniProt Q01196 (Q13951 whole entry, looked up): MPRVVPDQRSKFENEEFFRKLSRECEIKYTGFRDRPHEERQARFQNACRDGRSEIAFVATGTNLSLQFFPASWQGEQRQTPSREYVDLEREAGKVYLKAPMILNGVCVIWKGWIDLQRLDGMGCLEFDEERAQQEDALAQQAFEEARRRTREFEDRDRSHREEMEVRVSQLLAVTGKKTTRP

Row | SMILES | Potency | activity, negative = inhibition
1 | N#C/C(=C\c1ccc(O)c(O)c1)S(=O)(=O)c1ccccc1 | inconclusive [inhibitor, single point] | 
2 | CCc1ccc(N=c2c([N+](=O)[O-])nn(-c3ccccc3)n2O)cc1 | inconclusive [inhibitor, partial curve] | 
3 | COc1ccc2nc(N=Nc3ccc(N(C)C)cc3)sc2c1 | inconclusive [inhibitor, partial curve, poor fit] | 
4 | O=[N+]([O-])c1cccc(S(=O)(=O)c2ccc(N3CCCCC3)c([N+](=O)[O-])c2)c1 | inconclusive [inhibitor, partial curve] | 
5 | O=c1[nH]c2c(s1)C(c1ccccc1)C1C3CCC(C3)C1S2 (configuration not stated) |  | inactive: -13.5%
6 | COC(=O)c1ccc(CSc2nc3ccccc3o2)cc1 | inconclusive [activator, single point] | 
7 | Cc1ccc(NC(=O)COC(=O)C2CC2)c(Br)c1 |  | inactive: 0.632%
8 | Cc1csc(NC(=O)CS(=O)(=O)c2ccccc2)n1 | inconclusive [inhibitor, partial curve, poor fit] | 
9 | CC(C)Oc1cccc(C(=O)NC(=S)Nc2ccc(N3CCN(C)CC3)cc2)c1 | inconclusive [inhibitor, partial curve] | 
10 | CC(C)CC(C(=O)O)N1C(=O)C2C3CC(C2C1=O)C1C(c2ccccc2)c2sc(=O)[nH]c2SC31 (configuration not stated) | inconclusive [inhibitor, single point] | 
11 | CC(C)[C@H](NC(=O)c1ccccc1Cl)C(=O)Nc1nc(-c2ccccn2)cs1 | inconclusive [inhibitor, partial curve] | 
12 | COc1cc(/C=C2\SC(=O)N(c3ccc(Cl)cc3)C2=O)cc([N+](=O)[O-])c1O | inconclusive [inhibitor, partial curve] | 
13 | CCN(CC)C(CNS(=O)(=O)c1ccc(Cl)cc1)c1ccccc1 (configuration not stated) |  | inactive: -5.58%
14 | CNC(=O)COC(=O)c1[nH]c(C)c(C(C)=O)c1C |  | inactive: 15.9%
15 | CCN1C(=O)CSc2ccc(C(=O)NCc3ccccc3OC)cc21 |  | inactive: -0.717%
16 | CNC(=S)Nc1ccc(OCc2ccccc2)cc1 |  | inactive: -3.26%
17 | COC(=O)c1c(-c2ccc(C)cc2)csc1NC(=O)C1CC=CCC1C(=O)O (configuration not stated) |  | inactive: -0.991%
18 | c1ccc2nc(C3=NCCN3)ccc2c1 | inconclusive [activator, full curve] | 
19 | Nc1c(C(=O)NCc2ccco2)c2nc3ccccc3nc2n1Cc1ccccc1 | inconclusive [activator, partial curve, poor fit] | 
20 | CCOc1ccc2c(c1)C(=O)c1cc(OCC(=O)O)ccc1-2 | inconclusive [activator, single point] | 
21 | Cc1cc(C)n2c(SC/C(O)=C(\C#N)c3nc4ccccc4[nH]3)nnc2n1 | inconclusive [inhibitor, single point] | 
22 | O=C1CC(N2CCC(n3c(=O)[nH]c4ccccc43)CC2)C(=O)N1Cc1ccccc1 (configuration not stated) | inconclusive [inhibitor, partial curve] | 
23 | O=C(NC(=S)N1CCCc2ccccc21)c1ccccc1 |  | inactive: -10.3%

Row | SMILES | Potency | activity, negative = inhibition
24 | CC(C)/C(=N/Nc1ccccc1[N+](=O)[O-])c1ccccc1 | inconclusive [inhibitor, full curve] | 
25 | COc1cccc(N(C(C)=O)c2nc(C)cc(C)c2C#N)c1 | inconclusive [inhibitor, single point] | 
26 | Oc1ccc(/C=N/NC(=S)Nc2cccnc2)cc1O | inconclusive [inhibitor, full curve] | 
27 | C/C(=N\Nc1nc2ccccc2s1)c1ccc2c(c1)OCO2 | inconclusive [inhibitor, single point] | 
28 | CSc1ccccc1NC(=S)N/N=C/c1cccn1Cc1ccc(F)cc1 | inconclusive [inhibitor, single point] | 
29 | O=C(N/N=C/c1cc(Cl)ccc1O)c1ccccc1Br | inconclusive [inhibitor, single point] | 
30 | Oc1ccc(-c2nc3ncccn3c2Nc2ccc3c(c2)OCCO3)cc1 | inconclusive [inhibitor, single point] | 
31 | CCOC(=O)/C=c1\s/c(=C\c2ccc3cc(OC)ccc3c2)c(=O)n1CC(=O)NCc1ccc2c(c1)OCO2 |  | inactive: -1.22%
32 | CCOP(=O)(OCC)C(=Cc1cc(C(C)(C)C)c(O)c(C(C)(C)C)c1)P(=O)(OCC)OCC | inconclusive [activator, single point] | 
33 | Cn1c(=O)c(N)c2c3c(c(Br)ccc31)C(=O)c1ccccc1-2 | inconclusive [inhibitor, partial curve] | 
34 | Oc1cc2c(cc1O)[C@@H]1c3ccc(O)c(O)c3OC[C@]1(O)C2 | inconclusive [inhibitor, single point] | 
35 | Cc1ccc(CNC(=O)c2ccccc2CCc2ccccc2)cc1 | inconclusive [activator, single point] | 
36 | O=C(c1ccccc1)c1ccc(OCCCN2CCCC2)cc1 |  | inactive: -9.05%
37 | Cc1[nH]c(=S)sc1Cc1ccc(F)cc1 |  | inactive: -0.0184%
38 | CC1=NOC(=O)/C1=C\c1ccc(-c2ccc(Cl)c(C(=O)O)c2)o1 | inconclusive [inhibitor, single point] | 
39 | Nc1cc(=O)[nH]c(SCC(=O)Nc2ccccc2Sc2ccccc2)n1 | inconclusive [inhibitor, single point] | 
40 | COc1ccc(NCc2ccccc2[N+](=O)[O-])cc1OC | inconclusive [inhibitor, partial curve] | 
41 | O=[N+]([O-])c1cc(S(=O)(=O)NCCN2CCOCC2)ccc1Sc1nnnn1-c1ccccc1 |  | inactive: -15.6%
42 | CO/N=C/c1ccc(Sc2ccccc2)c([N+](=O)[O-])c1 | inconclusive [inhibitor, single point] | 
43 | O=C1C2C3C=CC(C4CC34)C2C(=O)N1/N=C/c1ccc(-c2ccc(Cl)cc2[N+](=O)[O-])o1 (configuration not stated) | inconclusive [inhibitor, single point] | 
44 | COc1ccc(C(=O)NCc2ccc3c(c2)cc(C)n3C)cc1 | inconclusive [inhibitor, single point] | 
45 | COc1ccccc1NC(C)C(=O)N/N=C/c1ccccc1OCc1cccc(Br)c1 (configuration not stated) | inconclusive [inhibitor, single point] | 
46 | Cc1ccc(-n2nnnc2SCC(=O)N(CC(C)C)c2c(N)n(CC(C)C)c(=O)[nH]c2=O)cc1 | inconclusive [inhibitor, single point] | 

Row | SMILES | Potency | activity, negative = inhibition
47 | O=C(NNS(=O)(=O)c1ccccc1)c1ccc(O)cc1 | inconclusive [activator, single point] | 
48 | Cc1csc(NC(=O)CSc2nnc(Cc3cccn3C)n2-c2ccc(F)cc2)n1 | inconclusive [inhibitor, single point] | 
49 | COc1cc(OC)cc(C(=O)Nn2cc(C(=O)Nc3c(F)cccc3F)c3ccccc3c2=O)c1 |  | inactive: -5.03%
50 | CCOc1c(Br)cc(CNc2ccc(N3CCN(C(C)=O)CC3)cc2)cc1OC | inconclusive [inhibitor, single point] | 
51 | CC(C)C[C@H](NC(=O)[C@H](Cc1ccccc1)NC(=O)[C@@H]1CCCN1C(=O)[C@H](CC(=O)O)NC(=O)[C@@H]1CCC(=O)N1)C(=O)N[C@@H](CCCN=C(N)N)C(=O)N[C@@H](Cc1ccccc1)C(N)=O |  | inactive: 4.45%
52 | O=C(NCC1CCCO1)C1CCN(S(=O)(=O)N2CCCC2)CC1 (configuration not stated) |  | inactive: 3.98%
53 | c1coc(-c2nnc3sc(Cc4cccs4)nn23)c1 | inconclusive [inhibitor, single point] | 
54 | COCc1nc(-c2ccc(-c3ccc(C)cc3)nc2OC)no1 |  | inactive: 15.7%
55 | O=C(/C=C/c1ccccc1Cl)N(Cc1ccccc1)C1CCS(=O)(=O)C1 (configuration not stated) |  | inactive: -1.44%
56 | O=C(Nc1cscc1S(=O)(=O)c1ccc(Cl)cc1)c1ccccc1Cl | inconclusive [activator, single point] | 
57 | COc1ccc(Cn2c3nc4ccccc4nc3c3c(=O)n(Cc4ccco4)cnc32)cc1 | inconclusive [inhibitor, partial curve] | 
58 | Cc1onc(-c2c(F)cccc2Cl)c1C(=O)Nc1cccc2nsnc12 | inconclusive [activator, partial curve] | 
59 | Cc1ccc(S(=O)(=O)Nc2cc(NC(=O)CN3CCOCC3)ccc2Cl)cc1 |  | inactive: 3%
60 | CCCCNc1nc(N)nc(-c2cc(Cl)ccc2O)n1 | inconclusive [activator, single point] | 
61 | O=C(NC1CCN(Cc2ccccc2)CC1)c1ccc(I)cc1 | inconclusive [activator, single point] | 
62 | COc1ccc(C(=O)c2sc3nc(-c4ccccc4)ccc3c2N)cc1OC | inconclusive [activator, partial curve] | 
63 | Cc1ccc(NCc2ccccc2OCc2ccccc2F)cc1 | inconclusive [inhibitor, single point] | 
64 | Cc1ccc(C)c(Nc2c([N+](=O)[O-])cc(C(=O)N3CC(=O)Nc4ccccc43)cc2[N+](=O)[O-])c1 | inconclusive [inhibitor, partial curve] | 
65 | O=C(NCCOc1ccc(Cl)cc1)c1ccc2ccccc2n1 | inconclusive [activator, partial curve] | 
66 | CCC(=O)NC(=S)Nc1ccc(NC(=O)c2cc3ccccc3o2)c(OC)c1 |  | inactive: -3.23%
67 | Cc1cnc(NC(=O)CSc2ncc(-c3ccccc3)n2Cc2ccco2)s1 | inconclusive [inhibitor, single point] | 

— PubChem BioAssay AID1477 (National Center for Advancing Translational Sciences (NCATS), 2009)
